# Reference: PMC7819943, “Rice protein-binding microarrays: a tool to detect cis-acting elements near promoter regions in rice”
# This is one part of the list.
# Target: T1, OsWOX13 (Oryza sativa, UniProt Q5QMM3 1-267)
# T1 sequence: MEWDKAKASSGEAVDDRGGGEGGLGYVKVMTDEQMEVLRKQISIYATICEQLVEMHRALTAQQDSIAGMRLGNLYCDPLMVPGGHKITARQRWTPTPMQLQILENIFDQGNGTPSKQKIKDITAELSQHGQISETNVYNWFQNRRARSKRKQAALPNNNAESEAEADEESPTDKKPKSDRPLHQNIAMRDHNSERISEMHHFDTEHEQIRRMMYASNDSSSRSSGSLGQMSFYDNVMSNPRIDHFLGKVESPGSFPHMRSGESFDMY
# Assay: protein-binding microarray (RPBM); PBS, 2% BSA, 51.3 ng/ul salmon testes DNA, 50 uM zinc acetate, 200 nM TF, 25 C, 1 h; high values mean tight binding
# Conditions: protein: recombinant; tags: N-terminal polyhistidine and DsRed monomer fusion (pET32a); label: CyDye5-dUTP incorporated in the synthesized complementary strand; 3' TTTTT single-stranded linker to array surface; dsDNA, one strand shown
# Outline: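 For the binding signal, per-feature fluorescence intensity was read in arbitrary units on an Axon 4000B scanner. Before scanning, a 2% BSA-blocked custom Agilent array made double-stranded with Cy5-dUTP was washed after 1 h at 25 °C with 200 nM protein and 50 µM zinc acetate. The proteins were Ni–NTA-purified transcription factors with N-terminal polyhistidine and DsRed fusions, expressed in E. coli BL21-CodonPlus.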
row,Sequence,binding signal
1,GTTAATTTCTCTCTCGTTTGAGTGCTTCCAAATAAATTCCCGGAGTCACCTAGTGCAG,3820 fluorescence intensity (a.u.)
2,TTGGTAATTTCATTCAGACATTGTTTGCAAGATTGCACCACGGAGTCACCTAGTGCAG,12000 fluorescence intensity (a.u.)
3,TATATATATATATATATATATATATATATATAAACCATGCCGGAGTCACCTAGTGCAG,21500 fluorescence intensity (a.u.)
4,CGGAATTAATCTGATTATGTGAGTGAATTGGCATTTTGAACGGAGTCACCTAGTGCAG,30700 fluorescence intensity (a.u.)
5,ATAGTTACAGTGTAATTACATGAAAGTTACAGTGTAATTACGGAGTCACCTAGTGCAG,3880 fluorescence intensity (a.u.)
6,AAGTGTTAATTACCTAGAGATCTTGTTGCTAGAGAAGAGGCGGAGTCACCTAGTGCAG,16300 fluorescence intensity (a.u.)
7,TTAATTGGCATGCATAATATGAGGGCACATGCACTCGAGTCGGAGTCACCTAGTGCAG,18000 fluorescence intensity (a.u.)
8,ATTGCTGATTGAGCATGTAGACATTGCTAGTGGTAGTACGCGGAGTCACCTAGTGCAG,58000 fluorescence intensity (a.u.)
9,AATTAATTAAACCACCCCAAAGACAACTCTTCTTCAGGAACGGAGTCACCTAGTGCAG,18500 fluorescence intensity (a.u.)
10,GTATGAATTGGTTATTACATTTGCTATAGATAATTTGGAGCGGAGTCACCTAGTGCAG,3970 fluorescence intensity (a.u.)
11,TCTAGATTACCCTTCTATTAGTGAGACATTGTTATAGTGCCGGAGTCACCTAGTGCAG,10100 fluorescence intensity (a.u.)
12,CTGGGATTAAAATTAGACATGTTTAACTTAGGCGAAGCTACGGAGTCACCTAGTGCAG,28600 fluorescence intensity (a.u.)
13,AATTCCACTCACTCATCACTTAATTTGCTAGCTAGTAGCTCGGAGTCACCTAGTGCAG,6770 fluorescence intensity (a.u.)
14,GGACTGATTTGCCTTTGCCCTTGCCGGCGCAGTCCAACCACGGAGTCACCTAGTGCAG,13200 fluorescence intensity (a.u.)
15,GAAAATAGATAACTTCAGTCTTCAGATGACAAGTAGTACACGGAGTCACCTAGTGCAG,5170 fluorescence intensity (a.u.)
16,AATGATTTATATCGTGAAACAGATGAAGTACTATATAGAACGGAGTCACCTAGTGCAG,12600 fluorescence intensity (a.u.)
17,TGTAACAAACAGGCTGTAACGGCACCGTAATAAACCCAACCGGAGTCACCTAGTGCAG,6570 fluorescence intensity (a.u.)
18,TTGATTTAGTCCATTTAATGAATGGTGCGTCACACTAAAACGGAGTCACCTAGTGCAG,7190 fluorescence intensity (a.u.)
19,GCGGTTGACTTAATAGAGGGGCTATTCATATTGATGTTAACGGAGTCACCTAGTGCAG,4480 fluorescence intensity (a.u.)
20,ATAATTAATAATTAAAATTCATGTATTCGCTCTATATCTTCGGAGTCACCTAGTGCAG,19200 fluorescence intensity (a.u.)
21,TACTGTCGGTTAATTGCCAACTTGTGCTCTCTCCTCATTTCGGAGTCACCTAGTGCAG,3230 fluorescence intensity (a.u.)

row,Sequence,binding signal
1,TTCAATTAAGGGGCAATTACAAATTTACCAATGTTTTGAACGGAGTCACCTAGTGCAG,21800 fluorescence intensity (a.u.)
2,CTTGATTATTTTAGGCTAATTCTGAATTGCGTGGGAGCTCCGGAGTCACCTAGTGCAG,33800 fluorescence intensity (a.u.)
3,TTAGACAATTATACTATAAGTTTACTTTACTGCCATTGGGCGGAGTCACCTAGTGCAG,3780 fluorescence intensity (a.u.)
4,TTGATTGAAAACCCACGCATCCTCCTCCTTCCCATTGCGCCGGAGTCACCTAGTGCAG,50500 fluorescence intensity (a.u.)
5,GGTATAGTTATTGGTTTGATTTATAATATAAAGGTATTTGCGGAGTCACCTAGTGCAG,11200 fluorescence intensity (a.u.)
6,CATTTGCGTGCCTGATTAATCCTCTCGTCATCTCACCTCACGGAGTCACCTAGTGCAG,3650 fluorescence intensity (a.u.)
7,TTTGACATACATTTATATGTGGGTTCCTCTAGATCTCTGTCGGAGTCACCTAGTGCAG,8800 fluorescence intensity (a.u.)
8,AATGATGGATTTGAAGGGCAGACGGAGTGCAAAAGTAAAACGGAGTCACCTAGTGCAG,3180 fluorescence intensity (a.u.)
9,AGTTAATTAAAATACACTGAATGGTGGGCTGTGGGTGCATCGGAGTCACCTAGTGCAG,36800 fluorescence intensity (a.u.)
10,CCTATCATTTGATTTATTATTAAATATACTTTTATATAGTCGGAGTCACCTAGTGCAG,14900 fluorescence intensity (a.u.)
11,ATGACTGACATGTGGATCCACTGGCACGTAAGCGTTACCGCGGAGTCACCTAGTGCAG,4700 fluorescence intensity (a.u.)
12,TAAATTCTTGATTAAACTCAACTTCTTGTATTTACTGTTGCGGAGTCACCTAGTGCAG,10800 fluorescence intensity (a.u.)
13,CCATAATCACGATGGGCCAGGAAATCAAACTAACTTTCCACGGAGTCACCTAGTGCAG,3900 fluorescence intensity (a.u.)
14,CCCTCCGGTTTTATTTTAATTAACGTTTTGGACAATGACACGGAGTCACCTAGTGCAG,4010 fluorescence intensity (a.u.)
15,AAACAATCAACCGAAACTATGAGGAGAACCAGATGATTCGCGGAGTCACCTAGTGCAG,3610 fluorescence intensity (a.u.)
16,ACATCAATTTCGTGTTATTAGCAAGCAACTAAGCAAGACGCGGAGTCACCTAGTGCAG,4100 fluorescence intensity (a.u.)
17,CCTCGATACATGTCAATCTCTACTACCATATTGAATAACTCGGAGTCACCTAGTGCAG,4190 fluorescence intensity (a.u.)
18,AAATTAAATGGCGAAGTGATTCGACTATTTAGTTCTCTCTCGGAGTCACCTAGTGCAG,3570 fluorescence intensity (a.u.)
19,GTAACGTTAATTGTTATGCATGTTATATCACTAGATTTATCGGAGTCACCTAGTGCAG,15800 fluorescence intensity (a.u.)
20,ATTCCTCCTCAATTAGTCATTCACTACATACATACAGCAACGGAGTCACCTAGTGCAG,5100 fluorescence intensity (a.u.)
21,AGACCAATCAAACAGCCATGACGAGGCTAGTTCAGATCACCGGAGTCACCTAGTGCAG,26200 fluorescence intensity (a.u.)

row,Sequence,binding signal
1,GTGCTAATTAACTGGTCACGACTCACGAGGATAACCGTGTCGGAGTCACCTAGTGCAG,36200 fluorescence intensity (a.u.)
2,ATAAACTGGAACAGAAGGCCAGGCGGAAATAAACTGGACACGGAGTCACCTAGTGCAG,6490 fluorescence intensity (a.u.)
3,TACCGATGATAATTTCCAACCGTAAACCGTAAACCGATCACGGAGTCACCTAGTGCAG,4390 fluorescence intensity (a.u.)
4,GTTAACATACAAAATTTTGGTAGTTTTGAGATCTCCCACCCGGAGTCACCTAGTGCAG,5280 fluorescence intensity (a.u.)
5,CATTGAATTGAAAATTTGACATATGAGATTTGTCTACGTCCGGAGTCACCTAGTGCAG,18000 fluorescence intensity (a.u.)
6,CGCTAATTATCTAAAATAATTCGTGCAAGATAAAATGATGCGGAGTCACCTAGTGCAG,32600 fluorescence intensity (a.u.)
7,ATGATTTTGAGTAACGCGACAATTGAGAGTTGTTTATAGTCGGAGTCACCTAGTGCAG,9680 fluorescence intensity (a.u.)
8,CAGTTTAACTGAGTGATAAATAGATAATAGTCAAAGGGAACGGAGTCACCTAGTGCAG,13500 fluorescence intensity (a.u.)
9,CGTGTAAATTACGAGACAAATCTTTTAAGCCTAATTGTGCCGGAGTCACCTAGTGCAG,13700 fluorescence intensity (a.u.)
10,ACTAGACACAGAACAGGTAAATTAAAGAGACATTCAACCTCGGAGTCACCTAGTGCAG,3160 fluorescence intensity (a.u.)
11,CTTTGTAGAATGATTAGATCGCGCATGGCTTTTACTTCATCGGAGTCACCTAGTGCAG,6210 fluorescence intensity (a.u.)
12,GAAAATCACGTGCGTAATTATGATAAGAGCAATCTCTACTCGGAGTCACCTAGTGCAG,14300 fluorescence intensity (a.u.)
13,TATCCCAATTAAAATGATATAATATAGATAGAGAGATATGCGGAGTCACCTAGTGCAG,8240 fluorescence intensity (a.u.)
14,TGGTGATTTGGGTGTTTCTTTGTTCGGAATTGCAGGGAGGCGGAGTCACCTAGTGCAG,9650 fluorescence intensity (a.u.)
15,AATTAATTGTAATCATCTTCTATACTAATACCAATATTTTCGGAGTCACCTAGTGCAG,3730 fluorescence intensity (a.u.)
16,AATATGGAGATTGAATGGTTTGATCATCCAGAAAACTCAACGGAGTCACCTAGTGCAG,13200 fluorescence intensity (a.u.)
17,CTGCAAACATACATTAATTGATGCATCCAGAAGAGTTAGACGGAGTCACCTAGTGCAG,31200 fluorescence intensity (a.u.)
18,AACAAATTGCATATGAAGGAAGGAACATGTGAAGCCTAGCCGGAGTCACCTAGTGCAG,5540 fluorescence intensity (a.u.)
19,TGCTAAATTTGGCTGTCAAAGCCTTCAGCACCTCGTACGTCGGAGTCACCTAGTGCAG,14000 fluorescence intensity (a.u.)
20,ATGTCTATCAATTTAATTGGTTTCCTGGGCTATGTTGCTGCGGAGTCACCTAGTGCAG,40600 fluorescence intensity (a.u.)
21,GTTCCTAATTGAAGTACCTCTTATGTTAACTTTTATTTGTCGGAGTCACCTAGTGCAG,43400 fluorescence intensity (a.u.)

row,Sequence,binding signal
1,CAAATTTTGTAATTAAATTGACGATAGACCTGTAGTTTTACGGAGTCACCTAGTGCAG,16300 fluorescence intensity (a.u.)
2,GCTATCAGTTTAACTGAAATTTAATCGTGGCAAAACAGAACGGAGTCACCTAGTGCAG,7840 fluorescence intensity (a.u.)
3,ACAATCAAATCACACAATGAAGATGAAGTTTCCGTTAGCACGGAGTCACCTAGTGCAG,4440 fluorescence intensity (a.u.)
4,TGTAACTGATTATTTCTTCAACGGTAGACGATGTATTCGACGGAGTCACCTAGTGCAG,32000 fluorescence intensity (a.u.)
5,TTAGACAAATGTAATTTGTTCTAGTGAGAAATTTGACCGACGGAGTCACCTAGTGCAG,13200 fluorescence intensity (a.u.)
6,CTAAATGCCTGATGGAGATGACTACTCATCCATGACGGGCCGGAGTCACCTAGTGCAG,4670 fluorescence intensity (a.u.)
7,TCAGAACAGTTGACTTTGATTGATCACCGCCCGTGACAATCGGAGTCACCTAGTGCAG,33600 fluorescence intensity (a.u.)
8,GGGCTCATGATTGGGGATATGGCGGTGTTGGCGAAGAATGCGGAGTCACCTAGTGCAG,25600 fluorescence intensity (a.u.)
9,TTTCTCTCCCTATCAATGCTCTCAATCACATACTTTGGTACGGAGTCACCTAGTGCAG,7490 fluorescence intensity (a.u.)
10,CTAAATTGAAATACTATATATAACGGGCTTCCTCATTTTACGGAGTCACCTAGTGCAG,7350 fluorescence intensity (a.u.)
11,TATCAATAAAATAATTGATGACCTGGCAGCTTAGCTTAATCGGAGTCACCTAGTGCAG,14100 fluorescence intensity (a.u.)
12,ATCTCCTAATTAATAAGAAGATGGTGTGTGTAAAATTAGGCGGAGTCACCTAGTGCAG,11500 fluorescence intensity (a.u.)
13,TGTAATTGATAAATATAAATTTACTTTAGGCATGTTTGATCGGAGTCACCTAGTGCAG,55700 fluorescence intensity (a.u.)
14,ATGTAATAAATTGATGGTCAAAAGGCCCTATTTGGATCCACGGAGTCACCTAGTGCAG,34400 fluorescence intensity (a.u.)
15,ATTTAATTTAACTCTATAATTAAGTACTACCTCTGTCCCGCGGAGTCACCTAGTGCAG,35200 fluorescence intensity (a.u.)
16,TGGTAGTAATATGATTGGATTTTAAATGGAGCTGCACAACCGGAGTCACCTAGTGCAG,22200 fluorescence intensity (a.u.)
17,TTTAATTTGTTCATTAAAGACCTAAGAGCTAATAAACGGACGGAGTCACCTAGTGCAG,23100 fluorescence intensity (a.u.)
18,GCAAATATTGTAAATGATTGCTCTTGTGCTAAGAAGAATACGGAGTCACCTAGTGCAG,4350 fluorescence intensity (a.u.)
19,TACTAGCTGATCAGAATTATAACTGAATTCAATTTTGAAACGGAGTCACCTAGTGCAG,4820 fluorescence intensity (a.u.)
20,ATCAGATTGTAGATTGGATAAGTAATTTGAGAGAAAACTTCGGAGTCACCTAGTGCAG,18500 fluorescence intensity (a.u.)
21,CAAGATAATTTTAAACAGTATTTTAAATTTCATCCGTTTTCGGAGTCACCTAGTGCAG,20300 fluorescence intensity (a.u.)
